Laboratory results as given in PMC9098178, “SAR of Novel 3-Arylisoquinolinones: meta-Substitution on the Aryl Ring Dramatically Enhances Antiproliferative Activity through Binding to Microtubules” (Journal of Medicinal Chemistry, 2022).

Test system: HepG2 cells
Experiment: Cell cycle analysis by flow cytometry

O=c1[nH]c(-c2cccc(F)c2)cc2cc(F)ccc12 [compound 4, 6-Fluoro-3-(3-fluorophenyl)isoquinolin-1(2H)-one]
sub-G0/G1 cell population (2 μM and 5 μM, 24 h, compared to control): significant sub-G0/G1 cell population | cells in S phase (5 μM, 24 h treatment): 12.4 ± 2.2%
